The whole screen tested about 150,000 compounds, of which about 540 (0.36%) showed an effect of 50% or more. The list shows a part of the results.

The test system of this test is Plasmodium falciparum. The test can be described thus: Primary screen in NF54 nanoGlo assay, in single point, at 2uM, 72h; a lower Z score goes with more inhibition. Conditions: timepoint 72 hour. The test is classed as functional, Erythrocyte.
The term % Inhibition denotes the change of the read-out against control, counted positive when it falls. As for `CC(C)(CNC(=O)N[C@H]1C[C@H]1C(F)F)c1ccc2ccccc2c1`, the “% Inhibition” value stood at 17% and the Z score is listed as -2.26.

For the compound `COc1ccc(CN(C(=O)c2cccnc2)C2CC2)c(OC)c1`, the “% Inhibition” value is -8% and the Z score amounted to 0.7.

Consider `Cc1nsc(C(=O)NCCOC[C@H]2CCOC2)c1N`, for which the “% Inhibition” value is reported as -3% and the Z score is given as 0.7.

Take `Cn1c(=O)c2c(ncn2CC(=O)N2CCN(Cc3ccc(Cl)s3)CC2)n(C)c1=O`: the “% Inhibition” value is on record as -9% and the Z score came out at 0.72.

`Cc1ccc(C(N)=O)c(N2CCC(n3cc(Cc4ccccc4)nn3)CC2)n1`: the “% Inhibition” value amounted to 10% and the Z score is reported as -1.33.

With `CC(C)OC[C@H]1CN(c2nc(-c3cccnc3)cs2)CCO1`, the “% Inhibition” value was 2% and the Z score is given as -0.29.

For `COc1ccc(NC(=O)c2ccc(F)cc2F)cc1N1CCCN(Cc2cccc(Cl)c2)C1=O`, the “% Inhibition” value is listed as 4% and the Z score is -0.85.

Take `Cc1ccccc1C1CN(CC(C)C)CC1CN(C(=O)c1ccc(F)cc1)C1CCCCC1` (centres undefined): the “% Inhibition” value is -11% and the Z score is recorded as 1.95.

For the compound `CCc1nsc(NC(C)C(C)C(=O)Nc2ncccc2O)n1` (centres undefined), the “% Inhibition” value is recorded as -2% and the Z score is on record as 0.21.

Consider `COc1nc(C)cc(C)c1CNC(=O)Cc1c[nH]c(=O)n(C)c1=O`, for which the “% Inhibition” value is given as 1% and the Z score was -0.21.

In the case of `NC(=O)CCNC(=O)[C@@H]1Cc2cc(Br)ccc2O1`, the “% Inhibition” value is listed as -22% and the Z score was found to be 2.19.

Regarding `Cc1snnc1C(=O)N1CCN(Cc2ccccc2)CC1`, the “% Inhibition” value was -8% and the Z score is given as 1.29.

Regarding `COc1cccc(OCc2nc(C(=O)N3CCCCO3)co2)c1`, the “% Inhibition” value is -10% and the Z score turned out to be 1.81.

As for `CC(C)(C)c1noc(-c2ccc(C(N)=O)[nH]2)n1`, the “% Inhibition” value is on record as -6% and the Z score was found to be 0.55.

Take `c1ccc(-c2ncn3c2-c2ccccc2C3)cc1`: the “% Inhibition” value came to 6% and the Z score was -0.8.

In the case of `CNC(=O)c1cc(C)ccc1NCc1nnc2n1CCOC2`, the “% Inhibition” value was -9% and the Z score turned out to be 1.74.

With `Cc1cc(C(=O)N[C@H]2CCN(c3nc4ccccc4o3)C[C@@H]2O)no1`, the “% Inhibition” value was -6% and the Z score is 0.88.

For the compound `CCCc1cc(N2CCN(c3cccc(Cl)c3)CC2)n2cnnc2n1`, the “% Inhibition” value is recorded as -2% and the Z score worked out at 0.2.

For `O=C(NCc1ccccn1)c1cccc(S(=O)(=O)N2CCCCC2)c1`, the “% Inhibition” value was -11% and the Z score was found to be 1.69.

Regarding `CCCC(CNC(=O)C1(C)CC1(F)F)C(=O)O` (centres undefined), the “% Inhibition” value was 6% and the Z score is -1.07.

For `CCC(NC(=O)C1CC(O)CN1)c1nc(C)cs1` (centres undefined), the “% Inhibition” value is reported as -4% and the Z score came out at 0.44.

Turning to `CCN(CC)Cc1ncnn1-c1ccc(F)c(F)c1`, the “% Inhibition” value came to 5% and the Z score is -0.82.

As to `CCOC1CC(NC(=O)C2COC(C)C2)C1Oc1ccccc1` (centres undefined), the “% Inhibition” value is given as -1% and the Z score came to 0.07.

Consider `C[C@@](CO)(CNCc1cnc(N2CCOCC2)nc1)c1ccccc1`, for which the “% Inhibition” value is -10% and the Z score was 1.27.

Consider `CN(Cc1ccc(-n2ccnc2)cc1)Cc1n[nH]c2c1CCC2`, for which the “% Inhibition” value is on record as 2% and the Z score is recorded as -0.41.

For `Cc1ccccc1NC(=O)c1cc(S(=O)(=O)N2CCCCCC2)cn1C`, the “% Inhibition” value is -13% and the Z score amounted to 1.81.

Take `CS(=O)(=O)c1ccc(CN2CC[C@H](c3nc4ccccc4[nH]3)C2)cc1`: the “% Inhibition” value is -10% and the Z score turned out to be 1.29.

Regarding `COCCN(C(=O)c1cnn(-c2ncc3c(n2)-c2ccccc2CCC3)c1C)C(C)C`, the “% Inhibition” value is recorded as -6% and the Z score was 1.22.

For the compound `COc1ccccc1-n1c(=O)n(C2CC2)c(=O)c2c1ncn2CC1CC1`, the “% Inhibition” value is listed as -4% and the Z score is 0.57.

Regarding `Cn1cccc1C(=O)NC1CCC(F)C1` (centres undefined), the “% Inhibition” value worked out at 10% and the Z score is listed as -1.22.

Regarding `COc1ccc([C@@H]2C[C@H](NC(C)=O)C[C@H](CC(C)C)O2)c(OC)c1OC`, the “% Inhibition” value worked out at 1% and the Z score is reported as -0.17.

Regarding `O=C(NCCc1ccccc1)N1C[C@@H]2CCCN2c2ccccc21`, the “% Inhibition” value was 0% and the Z score is given as -0.01.

Turning to `CCN(CC)[C@@H](C(=O)NCC(=O)NC(C)(C)C)c1cc(Cl)cc(Cl)c1`, the “% Inhibition” value is recorded as -20% and the Z score was found to be 3.11.

`CC1(C)C[C@@H]2C[C@@](C)(CN2C(=O)c2coc(CN3CCN(Cc4ccccc4)CC3)n2)C1`: the “% Inhibition” value was -9% and the Z score was 1.58.

With `Cc1nc(C)n(CC2CCCCN2C2CC(C)OC2=O)n1` (centres undefined), the “% Inhibition” value was -13% and the Z score amounted to 1.51.

On to `CCOC1CCCN(C(=O)NCC2CCCC(C)C2)C1` (centres undefined), for which the “% Inhibition” value is listed as -18% and the Z score was 2.46.

As to `CCn1nnc(C)c1CN1CCC(=O)N(C)c2cc(F)ccc21`, the “% Inhibition” value was 2% and the Z score is -0.34.

For the compound `CC(=O)N1CCCN(C(=O)c2n[nH]c(=O)c3ccccc23)CC1`, the “% Inhibition” value is listed as -7% and the Z score is on record as 1.33.

For the compound `CS(=O)(=O)N[C@@H](c1ccsc1)c1cccs1`, the “% Inhibition” value was -9% and the Z score is recorded as 1.59.

On to `O=C(O)[C@H]1CCCCN1C(=O)CCc1cc(Cl)cs1`, for which the “% Inhibition” value was 0% and the Z score came to 0.02.

Turning to `O=C(NC1CCCC1)C1CCN(c2ccc(-c3cccs3)nn2)CC1`, the “% Inhibition” value is on record as -2% and the Z score is given as 0.47.

Consider `COc1ccc([C@@H]2CCCN2C(=O)CCC(=O)c2cc(C)ccc2C)cc1OC`, for which the “% Inhibition” value came to 18% and the Z score was -2.34.

Values taken from ChEMBL document CHEMBL4888484, “Replenishing the malaria drug discovery pipeline: Screening and hit evaluation of the MMV Hit Generation Library 1 (HGL1) against asexual blood stage Plasmodium falciparum ,using a nano luciferase reporter read-out” (2022).
